According to PubChem BioAssay AID272 (DTP/NCI, 2004):
Inconclusive results are not listed. Not every entry of the source has a single result; some have several. The list is limited to them. There may be further records. The records of an entry are repeated measurements in other runs, samples, wells, individuals or studies.

Tested on: Lewis lung carcinoma i.m., BDF1 mice, T/C %
Assay: NCI In Vivo Anticancer Drug Screen. Data for tumor model Lewis Lung Carcinoma (intramuscular) in B6D2F1 (BDF1) mice
Method: The antitumor activity of compounds was measured in mice bearing transplantable tumors. Survival or tumor size were measured and the results are expressed as the measurement made in the treated group (T) divided by the measurement made in the vehicle treated control group (C). The tumor model used in this assay is Lewis Lung Carcinoma (intramuscular) in B6D2F1 (BDF1) mice

[1] = endpoint: mean tumor weight, dose: 10.0 mg/kg/injection, schedule: Q01DX011 (ip), vehicle: saline, higher = larger tumour
[2] = endpoint: mean tumor weight, dose: 50.0 mg/kg/injection, schedule: Q01DX011 (ip), vehicle: steriod suspending solution, higher = larger tumour

SMILES: O=NN(CCCl)C(=O)NCCCl
- T/C (endpoint: median survival time, dose: 14.0 mg/kg/injection, schedule: Q16DX002 (ip), vehicle: saline, higher = longer survival): 108 % of control and 191 % of control
- T/C (endpoint: median survival time, dose: 23.0 mg/kg/injection, schedule: Q16DX002 (ip), vehicle: saline, higher = longer survival): 121 % of control and 180 % of control

SMILES: CC1CCC(NC(=O)N(CCCl)N=O)CC1 (centres undefined)
- T/C (endpoint: median survival time, dose: 8.0 mg/kg/injection, schedule: Q01DX011 (ip), vehicle: saline with Tween-80, higher = longer survival): 117 % of control and 175 % of control

SMILES: S=c1nc[nH]c2nc[nH]c12
- T/C (endpoint: mean tumor weight, dose: 39.0 mg/kg/injection, schedule: Q01DX011 (ip), vehicle: other, higher = larger tumour): 50 % of control and 113 % of control

SMILES: CN(Cc1cnc2nc(N)nc(N)c2n1)c1ccc(C(=O)N[C@@H](CCC(=O)O)C(=O)O)cc1
- T/C (endpoint: mean tumor weight, dose: 0.62 mg/kg/injection, schedule: Q01DX011 (ip), vehicle: other, higher = larger tumour): 52 % of control and 102 % of control
- T/C (endpoint: mean tumor weight, dose: 1.25 mg/kg/injection, schedule: Q01DX011 (ip), vehicle: other, higher = larger tumour): 75 % of control and 103 % of control

SMILES: O=c1[nH]c(=O)n(C2CC(O)C(CO)O2)cc1F (centres undefined)
- T/C [1]: 41 % of control and 78 % of control

SMILES: CO[C@@]12[C@H](COC(N)=O)C3=C(C(=O)C(C)=C(N)C3=O)N1C[C@@H]1N[C@@H]12
- T/C (endpoint: median survival time, dose: 0.5 mg/kg/injection, schedule: Q01DX011 (ip), vehicle: water, higher = longer survival): 115 % of control and 160 % of control

SMILES: O=NN(CCCl)C(=O)NC1CCCCC1
- T/C (endpoint: mean tumor weight, dose: 5.0 mg/kg/injection, schedule: Q01DX009 (ip), vehicle: saline, higher = larger tumour): 40 % of control and 509 % of control
- T/C (endpoint: mean tumor weight, dose: 8.4 mg/kg/injection, schedule: Q01DX009 (ip), vehicle: saline, higher = larger tumour): 10 % of control and 80 % of control

SMILES: CC(CN1CC(=O)NC(=O)C1)N1CC(=O)NC(=O)C1 (centres undefined)
- T/C (endpoint: mean tumor weight, dose: 25.0 mg/kg/injection, schedule: Q01DX011 (ip), vehicle: steriod suspending solution, higher = larger tumour): 38 % of control and 78 % of control
- T/C [2]: 28 % of control and 58 % of control

SMILES: O=C1CN(CCN2CC(=O)NC(=O)C2)CC(=O)N1
- T/C (endpoint: mean tumor weight, dose: 12.5 mg/kg/injection, schedule: Q01DX011 (ip), vehicle: steriod suspending solution, higher = larger tumour): 65 % of control and 99 % of control
- T/C [2]: 20 % of control and 77 % of control

SMILES: O=P1(NCCCl)OCCCN1CCCl (centres undefined)
- T/C (endpoint: median survival time, dose: 65.0 mg/kg/injection, schedule: Q01DX011 (ip), vehicle: water, higher = longer survival): 100 % of control and 200 % of control

SMILES: N[C@@H](Cc1ccc(N(CCCl)CCCl)cc1)C(=O)O
- T/C (endpoint: mean tumor weight, dose: 1.5 mg/kg/injection, schedule: Q01DX011 (ip), vehicle: saline, higher = larger tumour): 70 % of control and 113 % of control

SMILES: CSc1ncnc2nc[nH]c12
- T/C (endpoint: mean tumor weight, dose: 50.0 mg/kg/injection, schedule: Q01DX011 (ip), vehicle: other, higher = larger tumour): 46 % of control and 76 % of control

SMILES: CN(N=O)C(=O)N[C@@H](C=O)[C@@H](O)[C@H](O)[C@H](O)CO
- T/C (endpoint: mean tumor weight, dose: 50.0 mg/kg/injection, schedule: Q01DX011 (ip), vehicle: saline, higher = larger tumour): 64 % of control and 98 % of control

SMILES: Cc1c(N)nc([C@H](CC(N)=O)NC[C@H](N)C(N)=O)nc1C(=O)N[C@H](C(=O)N[C@H](C)[C@@H](O)[C@H](C)C(=O)N[C@H](C(=O)NCCc1nc(-c2nc(C(=O)NCCC[S+](C)C)cs2)cs1)[C@@H](C)O)C(OC1OC(CO)C(O)C(O)C1OC1OC(CO)C(O)C(OC(N)=O)C1O)c1cnc[nH]1 (some centres undefined)
- T/C [1]: 3 % of control and 32 % of control
